# In PMC12820563:
# The list shows a part of the results. The list includes weakly bound sequences.
# Biological target: T1, MBP-FoxP3dN (UniProt Q99JB6)
# T1 sequence: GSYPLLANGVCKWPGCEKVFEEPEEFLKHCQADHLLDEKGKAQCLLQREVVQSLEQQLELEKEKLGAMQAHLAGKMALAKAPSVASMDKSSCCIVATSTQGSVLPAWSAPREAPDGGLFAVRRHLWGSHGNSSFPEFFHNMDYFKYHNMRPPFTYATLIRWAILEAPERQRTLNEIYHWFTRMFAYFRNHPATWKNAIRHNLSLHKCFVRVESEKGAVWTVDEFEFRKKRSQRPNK
# Experiment: PD-seq (MBP pull-down with sequencing)
# Details: 20 mM Tris-HCl pH 7.5, 100 mM NaCl, 1.5 mM MgCl2, 0.4 uM protein, 0.1 uM dsDNA library, 30 min, room temperature, amylose pull-down; high values mean tight binding; double strand, one strand shown
row,Sequence,binding signal (RPM ratio (pull-down/input))
1,GATGATTGTTCTCCCAGCTGATGAATTATTTATGTCGAGTAAACAAATTTTCCTAATCTTTCTGTTCAAGCGCCATCTAC,2.12
2,GATGATTGTTCTCCCAGCTGATGAATTGAAAACCTCGAGTAAACAAATTTTCCTAATCTTTCTGTTCAAGCGCCATCTAC,0.255
3,GATGATTGTTCTCCCAGCTGATGAATTCCTGGATTCGAGTAAACAAATTTTCCTAATCTTTCTGTTCAAGCGCCATCTAC,0.249
4,GATGATTGTTCTCCCAGCTGATGAATTGATTTCCTCGAGTAAACAAATTTTCCTAATCTTTCTGTTCAAGCGCCATCTAC,0.953
5,GATGATTGTTCTCCCAGCTGATGAATTTGCTATATCGAGTAAACAAATTTTCCTAATCTTTCTGTTCAAGCGCCATCTAC,1.68
6,GATGATTGTTCTCCCAGCTGATGAATTTATAACCTCGAGTAAACAAATTTTCCTAATCTTTCTGTTCAAGCGCCATCTAC,0.577
7,GATGATTGTTCTCCCAGCTGATGAATTGGCTACATCGAGTAAACAAATTTTCCTAATCTTTCTGTTCAAGCGCCATCTAC,0.479
8,GATGATTGTTCTCCCAGCTGATGAATTTTAAGCCTCGAGTAAACAAATTTTCCTAATCTTTCTGTTCAAGCGCCATCTAC,0.344
9,GATGATTGTTCTCCCAGCTGATGAATTAAACCTATCGAGTAAACAAATTTTCCTAATCTTTCTGTTCAAGCGCCATCTAC,0.337
10,GATGATTGTTCTCCCAGCTGATGAATTTCCACCATCGAGTAAACAAATTTTCCTAATCTTTCTGTTCAAGCGCCATCTAC,0.343
11,GATGATTGTTCTCCCAGCTGATGAATTCTGTAACTCGAGTAAACAAATTTTCCTAATCTTTCTGTTCAAGCGCCATCTAC,2.21
12,GATGATTGTTCTCCCAGCTGATGAATTGTAAGTATCGAGTAAACAAATTTTCCTAATCTTTCTGTTCAAGCGCCATCTAC,0.947
13,GATGATTGTTCTCCCAGCTGATGAATTCTCACCCTCGAGTAAACAAATTTTCCTAATCTTTCTGTTCAAGCGCCATCTAC,0.25
14,GATGATTGTTCTCCCAGCTGATGAATTAGCGCTGTCGAGTAAACAAATTTTCCTAATCTTTCTGTTCAAGCGCCATCTAC,0.488
15,GATGATTGTTCTCCCAGCTGATGAATTCGGAAATTCGAGTAAACAAATTTTCCTAATCTTTCTGTTCAAGCGCCATCTAC,0.499
16,GATGATTGTTCTCCCAGCTGATGAATTTCTTTCCTCGAGTAAACAAATTTTCCTAATCTTTCTGTTCAAGCGCCATCTAC,0.431
17,GATGATTGTTCTCCCAGCTGATGAATTTCATTCTTCGAGTAAACAAATTTTCCTAATCTTTCTGTTCAAGCGCCATCTAC,0.375
18,GATGATTGTTCTCCCAGCTGATGAATTGGTGCCGTCGAGTAAACAAATTTTCCTAATCTTTCTGTTCAAGCGCCATCTAC,0.709
19,GATGATTGTTCTCCCAGCTGATGAATTCGCCCAATCGAGTAAACAAATTTTCCTAATCTTTCTGTTCAAGCGCCATCTAC,0.293
20,GATGATTGTTCTCCCAGCTGATGAATTAGTATGTTCGAGTAAACAAATTTTCCTAATCTTTCTGTTCAAGCGCCATCTAC,4.19
21,GATGATTGTTCTCCCAGCTGATGAATTGGTTGGTTCGAGTAAACAAATTTTCCTAATCTTTCTGTTCAAGCGCCATCTAC,3.77

row,Sequence,binding signal (RPM ratio (pull-down/input))
1,GATGATTGTTCTCCCAGCTGATGAATTGCGGGTCTCGAGTAAACAAATTTTCCTAATCTTTCTGTTCAAGCGCCATCTAC,1.1
2,GATGATTGTTCTCCCAGCTGATGAATTAACCGGGTCGAGTAAACAAATTTTCCTAATCTTTCTGTTCAAGCGCCATCTAC,0.173
3,GATGATTGTTCTCCCAGCTGATGAATTAGCGGCATCGAGTAAACAAATTTTCCTAATCTTTCTGTTCAAGCGCCATCTAC,0.888
4,GATGATTGTTCTCCCAGCTGATGAATTTTGGCTTTCGAGTAAACAAATTTTCCTAATCTTTCTGTTCAAGCGCCATCTAC,1.2
5,GATGATTGTTCTCCCAGCTGATGAATTTGCCTTCTCGAGTAAACAAATTTTCCTAATCTTTCTGTTCAAGCGCCATCTAC,1.85
6,GATGATTGTTCTCCCAGCTGATGAATTACTGAAATCGAGTAAACAAATTTTCCTAATCTTTCTGTTCAAGCGCCATCTAC,0.283
7,GATGATTGTTCTCCCAGCTGATGAATTTGATTACTCGAGTAAACAAATTTTCCTAATCTTTCTGTTCAAGCGCCATCTAC,6.08
8,GATGATTGTTCTCCCAGCTGATGAATTTCGGCTATCGAGTAAACAAATTTTCCTAATCTTTCTGTTCAAGCGCCATCTAC,0.622
9,GATGATTGTTCTCCCAGCTGATGAATTACATAGGTCGAGTAAACAAATTTTCCTAATCTTTCTGTTCAAGCGCCATCTAC,0.413
10,GATGATTGTTCTCCCAGCTGATGAATTCTCGGGGTCGAGTAAACAAATTTTCCTAATCTTTCTGTTCAAGCGCCATCTAC,0.181
11,GATGATTGTTCTCCCAGCTGATGAATTCTGAATATCGAGTAAACAAATTTTCCTAATCTTTCTGTTCAAGCGCCATCTAC,0.629
12,GATGATTGTTCTCCCAGCTGATGAATTCACCTATTCGAGTAAACAAATTTTCCTAATCTTTCTGTTCAAGCGCCATCTAC,0.321
13,GATGATTGTTCTCCCAGCTGATGAATTCAAACATTCGAGTAAACAAATTTTCCTAATCTTTCTGTTCAAGCGCCATCTAC,1.12
14,GATGATTGTTCTCCCAGCTGATGAATTATGCCAATCGAGTAAACAAATTTTCCTAATCTTTCTGTTCAAGCGCCATCTAC,1.17
15,GATGATTGTTCTCCCAGCTGATGAATTAGATCCATCGAGTAAACAAATTTTCCTAATCTTTCTGTTCAAGCGCCATCTAC,0.298
16,GATGATTGTTCTCCCAGCTGATGAATTCTTAGTATCGAGTAAACAAATTTTCCTAATCTTTCTGTTCAAGCGCCATCTAC,0.42
17,GATGATTGTTCTCCCAGCTGATGAATTTGAGCGGTCGAGTAAACAAATTTTCCTAATCTTTCTGTTCAAGCGCCATCTAC,0.3
18,GATGATTGTTCTCCCAGCTGATGAATTGTCAACTTCGAGTAAACAAATTTTCCTAATCTTTCTGTTCAAGCGCCATCTAC,0.733
19,GATGATTGTTCTCCCAGCTGATGAATTCGCAAACTCGAGTAAACAAATTTTCCTAATCTTTCTGTTCAAGCGCCATCTAC,0.431
20,GATGATTGTTCTCCCAGCTGATGAATTCTATTTGTCGAGTAAACAAATTTTCCTAATCTTTCTGTTCAAGCGCCATCTAC,5.87
21,GATGATTGTTCTCCCAGCTGATGAATTTAACTACTCGAGTAAACAAATTTTCCTAATCTTTCTGTTCAAGCGCCATCTAC,0.559

row,Sequence,binding signal (RPM ratio (pull-down/input))
1,GATGATTGTTCTCCCAGCTGATGAATTACCACCTTCGAGTAAACAAATTTTCCTAATCTTTCTGTTCAAGCGCCATCTAC,0.337
2,GATGATTGTTCTCCCAGCTGATGAATTCGTTTTTTCGAGTAAACAAATTTTCCTAATCTTTCTGTTCAAGCGCCATCTAC,2.58
3,GATGATTGTTCTCCCAGCTGATGAATTAGTCCGATCGAGTAAACAAATTTTCCTAATCTTTCTGTTCAAGCGCCATCTAC,0.242
4,GATGATTGTTCTCCCAGCTGATGAATTGAGTCTTTCGAGTAAACAAATTTTCCTAATCTTTCTGTTCAAGCGCCATCTAC,0.597
5,GATGATTGTTCTCCCAGCTGATGAATTCAACTAGTCGAGTAAACAAATTTTCCTAATCTTTCTGTTCAAGCGCCATCTAC,0.309
6,GATGATTGTTCTCCCAGCTGATGAATTGTGGGCCTCGAGTAAACAAATTTTCCTAATCTTTCTGTTCAAGCGCCATCTAC,0.719
7,GATGATTGTTCTCCCAGCTGATGAATTCCGTCAGTCGAGTAAACAAATTTTCCTAATCTTTCTGTTCAAGCGCCATCTAC,0.433
8,GATGATTGTTCTCCCAGCTGATGAATTGCACTGCTCGAGTAAACAAATTTTCCTAATCTTTCTGTTCAAGCGCCATCTAC,0.798
9,GATGATTGTTCTCCCAGCTGATGAATTGCCCGGGTCGAGTAAACAAATTTTCCTAATCTTTCTGTTCAAGCGCCATCTAC,0.289
10,GATGATTGTTCTCCCAGCTGATGAATTGTTAGCCTCGAGTAAACAAATTTTCCTAATCTTTCTGTTCAAGCGCCATCTAC,1.48
11,GATGATTGTTCTCCCAGCTGATGAATTTAGTCTCTCGAGTAAACAAATTTTCCTAATCTTTCTGTTCAAGCGCCATCTAC,0.886
12,GATGATTGTTCTCCCAGCTGATGAATTTCAGCCATCGAGTAAACAAATTTTCCTAATCTTTCTGTTCAAGCGCCATCTAC,1.24
13,GATGATTGTTCTCCCAGCTGATGAATTGATCTTTTCGAGTAAACAAATTTTCCTAATCTTTCTGTTCAAGCGCCATCTAC,0.253
14,GATGATTGTTCTCCCAGCTGATGAATTAGCCGCGTCGAGTAAACAAATTTTCCTAATCTTTCTGTTCAAGCGCCATCTAC,0.498
15,GATGATTGTTCTCCCAGCTGATGAATTCATGGGGTCGAGTAAACAAATTTTCCTAATCTTTCTGTTCAAGCGCCATCTAC,0.44
16,GATGATTGTTCTCCCAGCTGATGAATTGCGATTATCGAGTAAACAAATTTTCCTAATCTTTCTGTTCAAGCGCCATCTAC,1.94
17,GATGATTGTTCTCCCAGCTGATGAATTGTGCACGTCGAGTAAACAAATTTTCCTAATCTTTCTGTTCAAGCGCCATCTAC,3.73
18,GATGATTGTTCTCCCAGCTGATGAATTAAACATGTCGAGTAAACAAATTTTCCTAATCTTTCTGTTCAAGCGCCATCTAC,0.651
19,GATGATTGTTCTCCCAGCTGATGAATTGTGTCCGTCGAGTAAACAAATTTTCCTAATCTTTCTGTTCAAGCGCCATCTAC,0.938
20,GATGATTGTTCTCCCAGCTGATGAATTAATCAATTCGAGTAAACAAATTTTCCTAATCTTTCTGTTCAAGCGCCATCTAC,0.407
21,GATGATTGTTCTCCCAGCTGATGAATTGATATGGTCGAGTAAACAAATTTTCCTAATCTTTCTGTTCAAGCGCCATCTAC,0.678
